Measurements as given in article PMC4336329 (PLoS ONE, 2015).
About 2,200 (0.71%) of roughly 310,000 compounds showed an effect of 50% or more. Effects have a minus sign here. The list shows a part of the results.

What follows are compounds tested against human ether-à-go-go-related gene (hERG) potassium channel (human, UniProt Q12809) (assay: primary screen, population patch clamp on CHO cells stably expressing hERG).
human ether-à-go-go-related gene (hERG) potassium channel, sequence (Q12809 whole entry, looked up): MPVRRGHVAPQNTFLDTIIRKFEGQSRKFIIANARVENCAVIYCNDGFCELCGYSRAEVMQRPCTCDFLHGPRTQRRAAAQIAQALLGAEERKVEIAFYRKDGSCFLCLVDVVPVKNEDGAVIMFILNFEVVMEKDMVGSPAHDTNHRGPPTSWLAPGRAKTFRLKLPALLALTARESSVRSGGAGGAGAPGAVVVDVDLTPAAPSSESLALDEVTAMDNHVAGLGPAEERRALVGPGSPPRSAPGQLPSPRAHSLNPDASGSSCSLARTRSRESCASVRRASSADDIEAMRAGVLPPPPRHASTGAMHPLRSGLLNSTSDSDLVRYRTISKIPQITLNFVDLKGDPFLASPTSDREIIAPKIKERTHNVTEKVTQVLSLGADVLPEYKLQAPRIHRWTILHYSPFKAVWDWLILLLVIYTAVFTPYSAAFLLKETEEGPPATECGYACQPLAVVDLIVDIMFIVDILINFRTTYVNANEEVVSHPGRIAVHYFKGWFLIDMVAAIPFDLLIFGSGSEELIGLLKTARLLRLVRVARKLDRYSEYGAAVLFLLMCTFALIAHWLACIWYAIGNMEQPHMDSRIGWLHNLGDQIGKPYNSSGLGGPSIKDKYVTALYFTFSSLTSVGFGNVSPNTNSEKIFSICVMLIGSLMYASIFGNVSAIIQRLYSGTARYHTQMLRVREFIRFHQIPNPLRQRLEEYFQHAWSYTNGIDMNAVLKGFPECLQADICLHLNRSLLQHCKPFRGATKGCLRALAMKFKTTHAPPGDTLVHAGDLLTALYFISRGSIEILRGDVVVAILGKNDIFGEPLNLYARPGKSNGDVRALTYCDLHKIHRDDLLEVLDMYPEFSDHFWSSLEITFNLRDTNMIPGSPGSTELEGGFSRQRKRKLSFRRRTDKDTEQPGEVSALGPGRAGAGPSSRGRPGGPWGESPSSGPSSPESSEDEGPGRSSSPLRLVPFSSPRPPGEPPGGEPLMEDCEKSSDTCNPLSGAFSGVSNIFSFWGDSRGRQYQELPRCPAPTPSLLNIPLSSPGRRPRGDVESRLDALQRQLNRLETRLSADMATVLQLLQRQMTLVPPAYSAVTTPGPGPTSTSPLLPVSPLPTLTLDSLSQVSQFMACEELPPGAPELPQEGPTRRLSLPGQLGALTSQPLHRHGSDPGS

Row | Structure (SMILES) | hERG current change (%, negative = inhibition) at 1uM
1 | CC1(C)OC1COc1c2ccoc2cc2oc(=O)ccc12 (stereo not drawn) | 0.408%
2 | O=S(=O)(c1ccccc1)N1CCN(c2nc3ccccc3s2)CC1 | 12.9%
3 | CCC(C)(C)NC(=O)C(c1ccc(OC)cc1)N(C(=O)CCC(=O)Nc1cc(C)on1)c1cccc(F)c1 (stereo not drawn) | 5.55%
4 | Nc1nc(SCC(=O)c2c(N)n(Cc3ccccc3)c(=O)[nH]c2=O)n[nH]1 | -1.49%
5 | COc1ccc(N2C(=O)c3ccccc3NC23CCCCC3)cc1 | 12.4%
6 | O=C(COc1ccccc1)NC(=S)N1CCc2ccccc21 | 10.7%
7 | CCN(CC)S(=O)(=O)c1ccc(N2CCN(c3ccccc3O)CC2)nc1 | -14.8%
8 | CCc1ccc(Nc2n[n+](-c3ccccc3)c(-c3ccc(OCc4ccccc4)cc3)s2)cc1.[Cl-] | -7.79%
9 | O=C(O)c1ccc(N2C(=O)CC(N3CCN(c4ccc(Cl)cc4)CC3)C2=O)cc1 (stereo not drawn) | 10.7%
10 | Fc1ccccc1Nc1nc(NCc2ccco2)nc(N2CCOCC2)n1 | 3.58%
11 | Cc1cccnc1NC1CCCCC1 | 12.2%
12 | CCOC(=O)c1nn(-c2ccc(OCC)cc2)c2nc(CC(C)C)c(C#N)c(=O)n12 | 1.7%
13 | O=C(CCl)c1cc2c3c(c1)CC(=O)N3CCC2 | 17.9%
14 | Cc1cc(=O)n2[nH]c(SCc3ccccc3Cl)nc2n1 | 14.7%
15 | CC(C)CC(=O)Nc1ccc(C(=O)COC(=O)C2CCC2)cc1 | 12.9%
16 | Cc1cnc(NC(=O)CSc2nc3ccccc3s2)s1 | 5.3%
17 | Cc1ccc2cc(C)c3nnc(SCC(=O)N4CCCc5ccccc54)n3c2c1C | -4.79%
18 | CCOC(=O)C1=C(CC)Nc2ccccc2N=C1NC(=O)c1ccc(S(=O)(=O)N2CCOCC2)cc1 | 11.2%
19 | CCCOC(=O)c1ccc(NC(=O)Oc2ccccc2)cc1 | 3.97%
20 | COC(=O)C1=C(c2ccc(C(C)=O)cc2)C[C@@H]2CC[C@H]1N2C(=O)NC1Cc2ccccc2C1 | 6.19%
21 | O=C(/C=C/c1cccs1)NCc1ccc2c(c1)OCO2 | 5.45%
22 | COc1ccc(C(NC(=O)C2CCCCC2)c2c(O)ccc3ccccc23)cc1 (stereo not drawn) | 8.75%

Row | Structure (SMILES) | hERG current change (%, negative = inhibition) at 1uM
23 | Cc1[nH]c(C)c(S(=O)(=O)N2CCCCC2C)c1C(=O)N1CCCC1 (stereo not drawn) | 17.4%
24 | COc1cccc(NC(=O)CN(C)C(=O)c2cc3c(s2)CCC(C)C3)c1 (stereo not drawn) | 15.7%
25 | O=C(/C=C/c1ccccc1[N+](=O)[O-])OC1CCCCC1=O (stereo not drawn) | 17.1%
26 | Cc1ccc(-c2nnc(NC(=O)CCS(=O)(=O)c3ccc(F)cc3)o2)c(C)c1 | -3.88%
27 | COc1ccc(CCNC(=O)c2ccc3nc[nH]c3c2)cc1 | 17.1%
28 | O=C(NCCc1csc(-c2cccnc2)n1)c1cccs1 | 0.779%
29 | COc1ccc(N(CC(=O)NC2CCCC2)C(=O)Cn2nnc(-c3ccc(C)cc3)n2)cc1 | -4.61%
30 | OCC[C@H]1C[C@@H](O)[C@H](O)[C@]2(CCCc3ccccc3O2)O1 | 11.5%
31 | CCSC(C)CC1C/C(=N/O)c2c(CC)noc2C1 (stereo not drawn) | 1.16%
32 | COc1cc(CNc2ncnc3c2[nH]c2ccc(C)cc23)cc(OC)c1 | 9.57%
33 | COC(=O)C(C)Sc1nc2c(c(-c3ccc(OC)cc3)c1C#N)-c1ccccc1C2=O (stereo not drawn) | 12.5%
34 | O=C(CCN1C(=O)c2ccc([N+](=O)[O-])cc2C1=O)Nc1ccccc1C(=O)O | 13.7%
35 | C[C@H](NC(=O)N1C[C@H]2C[C@@H](C1)c1cccc(=O)n1C2)C(=O)Nc1cccc(F)c1 | 0.353%
36 | COCCN(C(=S)Nc1ccc(OC)c(Cl)c1)C1CCN(C(C)C)CC1 | -9.56%
37 | COc1ccc(N2CCN(C(=O)C3CCCN3S(=O)(=O)c3cccc4nsnc34)CC2)cc1 (stereo not drawn) | 10.3%
38 | O=C(c1n[nH]c2ccccc12)N1CCN(c2ccc(F)cc2)CC1 | 1.36%
39 | Cc1ccc(S(=O)(=O)Cn2nnnc2CN2CCN(C(=O)c3ccco3)CC2)cc1 | -4.51%
40 | Cc1nn(C)cc1/C=N/NC(=O)CSc1ccccn1 | 16.5%
41 | CCN1C(=O)[C@H]2[C@@H](c3ccc(-c4ccc(Cl)c(Cl)c4)c(OC)c3)N[C@@](C)(C(=O)OC)[C@H]2C1=O.O=C(O)C(F)(F)F | 12.1%
42 | CCOc1ccc(OCC)c(NC(=O)CN2CCN(CC(=O)NC(C)C)CC2)c1.Cl | 19.1%
43 | COc1ccc(NC(=O)C2CCN(c3ncnc4c3nc3n4CCCCC3)CC2)c(OC)c1 | 1.93%
44 | CCN(CC)S(=O)(=O)c1ccc(NC(=O)CSc2nnc(-c3ccc(F)cc3)o2)cc1 | 11.9%

Row | Structure (SMILES) | hERG current change (%, negative = inhibition) at 1uM
45 | O=[N+]([O-])c1ccccc1CNCCCCO | 5.46%
46 | CN(C)S(=O)(=O)c1ccc(Cl)c(NC(=O)CN2CCc3ccccc3C2)c1 | 15.2%
47 | Cc1c(N)cc(N)cc1C(=O)O | 11.3%
48 | COc1ccc2[nH]c(C(=O)NCc3ccccc3)c(C)c2c1.Cl | 10.3%
49 | Cc1cc2oc(C(=O)N(Cc3ccccc3)C3CCS(=O)(=O)C3)cc(=O)c2cc1Cl (stereo not drawn) | 11.4%
50 | CCOc1ccccc1NC(=O)Nc1cc(C(=O)O)ccc1C | 12%
51 | COC(=O)CCCCC1SCC(NC(=O)OC)C1NC(=O)OC (stereo not drawn) | 10.9%
52 | COc1ccc(Nc2ccc(N3C(=O)CC(C)C3=O)cc2[N+](=O)[O-])cc1OC (stereo not drawn) | 7.09%
53 | O=C(NC(=S)NC1CC1)c1cccnc1 | 8.98%
54 | Cc1cc(C)nc(Nc2n[nH]c(C)n2)n1 | 10.2%
55 | CC(=Nc1ccccc1)C1=C(O)CC(C)(C)CC1=O | 11.8%
56 | CC1CCN(C(=O)c2ccc(S(=O)(=O)Cc3cccc(F)c3)c([N+](=O)[O-])c2)CC1 | 11.7%
57 | Cc1cccc(C)c1Nc1c(-c2ccsc2)nc2ncccn12 | 1%
58 | Cc1ccc(S(=O)(=O)N(C(=O)c2ccco2)c2cc3sc(=O)oc3c3ccccc23)cc1 | 5.71%
59 | O=C(NCc1ccncc1)c1ccc(OCc2ccccc2)cc1 | 7.47%
60 | Cc1cccc(C(C)C)c1NC(=O)c1ccc(CN(c2ccccc2)S(=O)(=O)c2ccccc2)cc1 | 7.45%
61 | O=C(CSc1nncn1-c1ccccc1)NC1CCCC1 | 1.06%
62 | COc1ccccc1CCNC(=O)c1ccc(NC(=O)CC2SC(N3CCCC3)=NC2=O)cc1 (stereo not drawn) | 16%
63 | COc1ccc(C2C(C(C)=O)=C(O)C(=O)N2c2cccnc2)c(OC)c1 (stereo not drawn) | 5.88%
64 | O=C(Cc1ccccc1)Nc1c(C(=O)N2CCCCCC2)cnn1-c1ccccc1 | 16.4%
65 | C=CCNc1cccc(Br)c1 | 12.5%
66 | CNS(=O)(=O)c1ccc(CCC(=O)N2CCN(c3ccccc3OC)CC2)cc1 | 11.9%

Row | Structure (SMILES) | hERG current change (%, negative = inhibition) at 1uM
67 | Cc1noc(C)c1S(=O)(=O)Nc1ccc(C(=O)N2CCN(c3ccc(F)cc3)CC2)cc1 | 2.44%
68 | Cn1c(=O)[nH]c(=O)c2cc(C(=O)c3cc(F)ccc3O)cnc21 | 15.1%
69 | CC(NC(=O)c1cc(=O)[nH]c2ccccc12)c1ccc(F)cc1F (stereo not drawn) | 17.9%
70 | CCOC(=O)[C@H]1[C@H]2COc3ccc(C)cc3[C@@H]2N2C(=O)c3ccc(F)cc3NC(=O)[C@@]12C | -1.08%
71 | O=C(Nc1cccc(F)c1)c1ccc(S(=O)(=O)N2CCCC2)cc1 | 2.32%
72 | COCCCNC(=O)Cn1ccc(NC(=O)OCc2ccccc2)nc1=O | 9.66%
73 | O=C(O)CCCC(=O)NCCCCc1ccccc1 | 10.8%
74 | Cc1ccc(C(=O)CN2C(=O)NC3(CCc4ccccc43)C2=O)s1 (stereo not drawn) | 8.48%
75 | O=C1C(SC(F)(F)C(F)F)=C(C(F)(F)F)OC2C3C=CC(C3)C12 (stereo not drawn) | 9.97%
76 | CC(=O)c1cccc(S(=O)(=O)Nc2ccc3nc(C)sc3c2)c1 | 7.97%
77 | CCCC(=O)N(Cc1cc(=O)[nH]c2ccccc12)c1ccc(C)cc1 | 5.97%
78 | O=C1/C(=C\c2cccnc2)N2CCC1CC2 | 14.9%
79 | O=C(Oc1ccc(-n2cnnn2)cc1)c1ccco1 | 8.16%
80 | Cc1ccc(S(=O)(=O)Nc2cccc(/C=C/C(=O)O)c2)cc1 | 17%
81 | O=C(O)CCN1C(=O)/C(=C2\C(=O)N(Cc3ccc(F)cc3)c3ccccc32)SC1=S | 22.2%
82 | COc1cc(C)c(C(=O)CC(=O)c2c(C)cc(OC)cc2C)c(C)c1 | 8.11%
83 | COc1ccccc1C(=O)NC(CCSC)C(=O)NCC(c1ccco1)N(C)C (stereo not drawn) | -12.3%
84 | O=C(O)c1cc(Cl)c(Cl)cc1C(=O)NCc1ccco1 | 16.4%
85 | CCCCNC(=O)CSc1nc(CCC)nc2ccccc12 | 16.7%
86 | Cc1nc2ccccc2nc(C)c1=NOCc1ccccc1Cl | 6.22%
87 | COc1ccc(Nc2nc(Cl)nc(NCc3ccco3)n2)c(OC)c1 | 14.2%
